The other results are listed elsewhere or left out. The source does not settle which construct or isoform was used.

This test concerns the target GST-SBP-ILF3 (Homo sapiens) (UniProt Q12906). The experiment in a line: targeted RNA Bind-n-Seq. Particulars: RBNS binding buffer: 25 mM Tris pH 7.5, 150 mM KCl, 3 mM MgCl2, 0.1% Tween, 0.5 mg/mL BSA, 1 mM DTT; 27 nM protein, 750 pM RNA pool; temperature not stated; high values mean tight binding; sequences stand for … in GGGUAAAAGCGAGGUGAA…CGGGACAAGUAUUAUGGG
Turning to “UUUUUUUUUUGAGAUGGGGGCCAUUUCCAG [tttttgagapaired]”, the binding signal (log2 fold change) worked out at 0.882.
As to “GUUGUGUGUGUUGGACUCUAACACACGCAG [gtspaired]”, the binding signal (log2 fold change) is -0.698.
Next, “UUUUUUUUUUGAGACGGAUUCUGUCUCCAG [tttttgagapaired]”: 0.173; “UUUUUUUUUUGAGACUGAUCCAGUCUUCUG [tttttgagapaired]”: 0.0108; “GUGUGUGGUGUUGGCACCUAACACCGCGCG [gtspaired]”: -0.535.
For “UUUUUUUUUUGAGACGGAGUCUGUCUCCUA [tttttgagapaired]”, the binding signal (log2 fold change) worked out at 0.275.
Regarding “UUUUUUUUUUGAGAUGGCAACCAUCUUCUG [tttttgagapaired]”, the binding signal (log2 fold change) came to 0.405.
As for “GUGUGUGGUGUUGGCGCCUAACACCAUACG [gtspaired]”, the binding signal (log2 fold change) was -0.53.
Regarding “UUUUUUUUUUGAGACGGAAGCUGUCUUCUA [tttttgagapaired]”, the binding signal (log2 fold change) was determined as 0.548.
Consider “UUUUUUUUUUGAGACUGGGCCAGUCUUCUG [tttttgagapaired]”, for which the binding signal (log2 fold change) was 0.579.
Regarding “UUUUUUUUUUGAGACGGUAACCGUCUCCUG [tttttgagapaired]”, the binding signal (log2 fold change) was determined as 0.496.
As for “UUUUUUUUUUGAGAGCGGUCCGCUCUCCAG [tttttgagapaired]”, the binding signal (log2 fold change) is 0.61.
Consider “GUGGUUGGUGUUGGCACCUAACACCAACUA [gtspaired]”, for which the binding signal (log2 fold change) is -0.683.
Then “GGUGUGUGUGUUGGUACCUAACACAUAUAC [gtspaired]”, with -0.927.
“GUGUGUGGUGUUGGCAUCUAACACCAUACG [gtspaired]”: the binding signal (log2 fold change) was -0.547.
In the case of “UUUUUUUUUUGAGAGCGGGUCGCUCUCCGG [tttttgagapaired]”, the binding signal (log2 fold change) is 0.53.
Consider “GGUUGGUGUGUUGGAUCCUAACACAUCAGC [gtspaired]”, for which the binding signal (log2 fold change) was -0.57.
On to “GUUGGUGGUGUUGGAUUCUAACACCGCCGA [gtspaired]”, for which the binding signal (log2 fold change) is -0.721.
As to “UUUUUUUUUUGAGAUCGGAACGAUCUUCUA [tttttgagapaired]”, the binding signal (log2 fold change) is -0.112.
Turning to “UUUUUUUUUUGAGAUGGAGACCAUCUCCUG [tttttgagapaired]”, the binding signal (log2 fold change) was 0.459.
For “UUUUUUUUUUGAGACUGAUGCAGUCUCCAG [tttttgagapaired]”, the binding signal (log2 fold change) came to 0.376.
Then “UUUUUUUUUUGAGAGGGCCACCCUCUCCAG [tttttgagapaired]”, with 0.857.
For the sequence “GUGGUGUGUGUUGGCCCCUAACACAUACCA [gtspaired]”, the binding signal (log2 fold change) is 0.0963.
In the case of “UUUUUUUUUUGAGAGGGCUGCUCUCUCCAG [tttttgagapaired]”, the binding signal (log2 fold change) was determined as 0.706.
Then “GGUUGUGGUGUUGGUCCCUAACACCGCAGC [gtspaired]”, with -0.323; and “UUUUUUUUUUGAGAUGGGACCCAUCUCCGG [tttttgagapaired]”, with 0.352; and “UUCUCUUCUCCUCCGCUGGAGGAGGAGGGA [ctspaired]”, with 0.1.
“UUUUUUUUUUGAGACCGUUUCGGUCUCCAG [tttttgagapaired]”: the binding signal (log2 fold change) worked out at 0.119.
“UUUUUUUUUUGAGAUGGAGACCAUUUCCGG [tttttgagapaired]”: the binding signal (log2 fold change) came out at 0.442.
Next, “GUGGUGUGUGUUGGCGUCUAACACACACUA [gtspaired]”: -0.548; “GGUGGUGGUGUUGGAAUCUAACACCGCUAC [gtspaired]”: -0.539.
Next, “GUGUGUUGUGUUGGCCUCUAACACAACGCA [gtspaired]”: -0.411.
Turning to “UUUUUUUUUUGAGAUCGAAACGAUCUCCUG [tttttgagapaired]”, the binding signal (log2 fold change) was -0.0647.
With “UUUUUUUUUUGAGAUGGUUUCCAUCUCCUG [tttttgagapaired]”, the binding signal (log2 fold change) turned out to be 0.413.
With “GUGUUGUGUGUUGGCCCCUAACACACAGCG [gtspaired]”, the binding signal (log2 fold change) is -0.213.
For “GGUUGUGGUGUUGGCGUCUAACACCAUAAC [gtspaired]”, the binding signal (log2 fold change) was -0.742.
As to “UUUUUUUUUUGAGACGGAAACUGUCUUCUG [tttttgagapaired]”, the binding signal (log2 fold change) amounted to 0.817.
As for “GUGUGUGGUGUUGGAGUCUAACACCACGCG [gtspaired]”, the binding signal (log2 fold change) is -0.587.
In the case of “UUUUUUUUUUGAGACGGCGACUGUCUCCGG [tttttgagapaired]”, the binding signal (log2 fold change) was found to be 1.04.
For “UUUUUUUUUUGAGACUGUUUCAGUUUCCAG [tttttgagapaired]”, the binding signal (log2 fold change) was found to be 0.125.
Next, “UUUUUUUUUUGAGACUGCUACAGUUUCCGG [tttttgagapaired]”: 0.64; “GUGUGGUGUGUUGGUGUCUAACACACUACG [gtspaired]”: -1.1.
Then “GUGGUGUGUGUUGGCUCCUAACACAUACCG [gtspaired]”, with -0.603; and “UUUUUUUUUUGAGAGUGCUACAUUCUCCGG [tttttgagapaired]”, with 0.19; and “UUUUUUUUUUGAGACGGAUGCCGUCUCCUA [tttttgagapaired]”, with 0.347.
Then “UUUUUUUUUUGAGAUCGAGACGGUCUCCUG [tttttgagapaired]”, with 0.565.
Take “UUUUUUUUUUGAGACCGAUCCGGUUUCCAG [tttttgagapaired]”: the binding signal (log2 fold change) came to 0.382.
For “UUUUUUUUUUGAGACGGGGUCUGUCUUCUA [tttttgagapaired]”, the binding signal (log2 fold change) stood at 0.821.
For the sequence “UUUUUUUUUUGAGAUGGACACUAUCUCCUG [tttttgagapaired]”, the binding signal (log2 fold change) amounted to 0.478.
Consider “UUUUUUUUUUGAGACGGAUUCCGUCUCCUG [tttttgagapaired]”, for which the binding signal (log2 fold change) was determined as 0.136.
Take “UUUUUUUUUUGAGAGGGAACCCCUCUUCUG [tttttgagapaired]”: the binding signal (log2 fold change) was 0.0462.
Turning to “UUUUUUUUUUGAGACCGUAACGGUCUUCUA [tttttgagapaired]”, the binding signal (log2 fold change) was 0.83.
On to “GGUUGGUGUGUUGGCAUCUAACACAUCGAC [gtspaired]”, for which the binding signal (log2 fold change) is -0.86.
“UUUUUUUUUUGAGAUGGUGUCUAUCUCCUG [tttttgagapaired]”: the binding signal (log2 fold change) was determined as 0.864.
On to “GUGGUUGGUGUUGGUACCUAACACCAGCCG [gtspaired]”, for which the binding signal (log2 fold change) is -0.747.
Turning to “GUUGUGUGUGUUGGUCCCUAACACACGCAA [gtspaired]”, the binding signal (log2 fold change) was -0.489.
In the case of “UUUUUUUUUUGAGAGUGUAACACUCUCCUG [tttttgagapaired]”, the binding signal (log2 fold change) was 0.424.
Then “UUUUUUUUUUGAGACGGAGACUGUCUCCUG [tttttgagapaired]”, with 0.996.
For the sequence “GGUGGUUGUGUUGGUCCCUAACACAGCCAC [gtspaired]”, the binding signal (log2 fold change) is -0.114.
On to “GUGUGGUGUGUUGGUAUCUAACACAUCGCA [gtspaired]”, for which the binding signal (log2 fold change) was -0.614.
With “UUCUCCUCUCCUCCGGGGGAGGGGGGGAGA [ctspaired]”, the binding signal (log2 fold change) was -0.351.
“GUGUGUUGUGUUGGCCUCUAACACAGCACG [gtspaired]”: the binding signal (log2 fold change) was -0.732.
Next, “UUUUUUUUUUGAGACUGCGACAGUUUCCGG [tttttgagapaired]”: 0.727; “UUUUUUUUUUGAGACCGUUUCGGUCUUCUA [tttttgagapaired]”: 0.24; “UUUUUUUUUUGAGAGGGCAACCCUUUCCGG [tttttgagapaired]”: 0.371.
On to “UUUUUUUUUUGAGAGGGAUACCCUCUCCGG [tttttgagapaired]”, for which the binding signal (log2 fold change) amounted to 0.192.
For the sequence “UUUUUUUUUUGAGAUCGGACCGAUCUCCUA [tttttgagapaired]”, the binding signal (log2 fold change) stood at 0.249.
Consider “GUGGUUGGUGUUGGCGCCUAACACCGACUA [gtspaired]”, for which the binding signal (log2 fold change) is -0.461.
For the sequence “GUUGUGUGUGUUGGUCCCUAACACACACGA [gtspaired]”, the binding signal (log2 fold change) was -0.523.
With “UUUUUUUUUUGAGACUGUGGCAGUCUCCUG [tttttgagapaired]”, the binding signal (log2 fold change) was determined as 0.863.
For “UUUUUUUUUUGAGACUGCUGCAGUCUUCUA [tttttgagapaired]”, the binding signal (log2 fold change) came to 0.56.
For the sequence “UUUUUUUUUUGAGAGUGUAACAUUCUCCGG [tttttgagapaired]”, the binding signal (log2 fold change) was 0.0163.
Then “GGUGUGUGUGUUGGAUUCUAACACAUACAC [gtspaired]”, with -0.449; and “GUGUGUUGUGUUGGACCCUAACACAGCACA [gtspaired]”, with -0.492; and “UUUUUUUUUUGAGACGGAGCCCGUCUCCUG [tttttgagapaired]”, with 0.722.
Then “GGUUGUUGUGUUGGCUUCUAACACAGCAAC [gtspaired]”, with -0.173.
For the sequence “UUUUUUUUUUGAGACCGUAGCGGUCUCCUA [tttttgagapaired]”, the binding signal (log2 fold change) is 0.57.
For the sequence “GGUUGUGGUGUUGGACUCUAACACCGCGAC [gtspaired]”, the binding signal (log2 fold change) is -0.607.
Next, “UUUUUUUUUUGAGAGCGUAUCGUUCUUCUA [tttttgagapaired]”: 0.286; “GGUGUGUGUGUUGGCACCUAACACACAUAC [gtspaired]”: -0.0113.
“GGUGGUUGUGUUGGCCCCUAACACAGCCGC [gtspaired]”: the binding signal (log2 fold change) is -0.334.
Next, “UUUUUUUUUUGAGAGGGCCGCCCUCUCCUG [tttttgagapaired]”: 1.22.
For the sequence “UUUUUUUUUUGAGAUGGAUACCAUCUUCUG [tttttgagapaired]”, the binding signal (log2 fold change) was 0.26.
In the case of “GUGUGGUGUGUUGGACUCUAACACAUCGCA [gtspaired]”, the binding signal (log2 fold change) was -0.652.
Then “GGUUGUGGUGUUGGAGCCUAACACCAUAAC [gtspaired]”, with -0.842; and “UUCUUCUCUCCUCCACGGGAGGGGGGAAGA [ctspaired]”, with -0.612; and “UUUUUUUUUUGAGAGCGGCACGCUCUUCUG [tttttgagapaired]”, with 0.269.
For “UUUUUUUUUUGAGACGGGGUCCGUCUUCUG [tttttgagapaired]”, the binding signal (log2 fold change) came out at 0.837.
With “UUUUUUUUUUGAGAUGGUCUCCAUCUCCUG [tttttgagapaired]”, the binding signal (log2 fold change) amounted to 0.343.
“UUUUUUUUUUGAGAUCGAUGCGAUCUUCUA [tttttgagapaired]”: the binding signal (log2 fold change) amounted to 0.274.
Take “UUUUUUUUUUGAGAGUGAUCCACUCUCCUA [tttttgagapaired]”: the binding signal (log2 fold change) is -0.304.
As to “UUUUUUUUUUGAGACCGCAACGGUUUCCAG [tttttgagapaired]”, the binding signal (log2 fold change) amounted to 0.377.
Next, “UUUUUUUUUUGAGAGUGAUACACUCUCCUA [tttttgagapaired]”: -0.0016.
As to “UUUUUUUUUUGAGACGGACACCGUUUCCAG [tttttgagapaired]”, the binding signal (log2 fold change) was 0.508.
As to “GUGGUUGGUGUUGGCGUCUAACACCGACUA [gtspaired]”, the binding signal (log2 fold change) was -0.599.
As for “UUUUUUUUUUGAGACGGAAACCGUCUCCGG [tttttgagapaired]”, the binding signal (log2 fold change) was 0.379.
Next, “GUGUGGUGUGUUGGUGUCUAACACAUCGCG [gtspaired]”: -0.832; “GUGUGGUGUGUUGGUUCCUAACACAUCACG [gtspaired]”: -0.912.
With “UUUUUUUUUUGAGACGGAAUCCGUCUCCUA [tttttgagapaired]”, the binding signal (log2 fold change) amounted to 0.115.
As for “UUUUUUUUUUGAGACUGCAGCAGUCUCCUA [tttttgagapaired]”, the binding signal (log2 fold change) was found to be 0.591.
Regarding “UUUUUUUUUUGAGACCGAGUCGGUCUUCUG [tttttgagapaired]”, the binding signal (log2 fold change) was found to be 0.682.
For “UUUUUUUUUUGAGAUCGGGGCGAUCUCCUG [tttttgagapaired]”, the binding signal (log2 fold change) stood at 0.631.
For the sequence “GUGGUUGGUGUUGGUGUCUAACACCAGCCG [gtspaired]”, the binding signal (log2 fold change) is -0.306.

Values taken from publication PMC5892938.
